{"source": "the supplement of paper PMC11348887", "note": "Where a name gives a salt, the structure may show the parent alone. The list shows a part of the results. Cut-off read from the data, not from the text of the source: active = -2 or less and inactive = the rest. Repeats are few or missing, and single values can be far off.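 Note: nuclei counted from DAPI counterstain by automated high-content image analysis, four fields per well at ×20 in 384-well plates, with sequential b-score then z-score normalization.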"}
{"system": "hPSC-derived cortical neurons (WA09)", "assay": "nuclei number (viability) z-score; higher = more surviving cells", "conditions": "5 µM; treatment: days 7-14 after plating, readout day 21"}
{"smiles": "C=CCN1CC[C@]23c4c5ccc(O)c4O[C@H]2C(=O)CC[C@@]3(O)[C@H]1C5", "note": "[Naloxone HCl]", "nuclei number (z-score)": "inactive: 0.0366"}
{"smiles": "C=CCN1CC[C@]23c4c5ccc(O)c4O[C@H]2C(=O)CC[C@@]3(O)[C@H]1C5", "note": "[Naloxone HCl Dihydrate]", "nuclei number (z-score)": "inactive: 1.94"}
{"smiles": "CNC1CC(N)C(O)C(OC2OC(CO)C(O)C3OC4(OC(C(N)CO)C(O)C(O)C4O)OC23)C1O", "note": "(centres undefined) [Hygromycin B]", "nuclei number (z-score)": "active: -3.43"}
{"smiles": "O=C1C=CC[C@@H]2[C@H]3CCCN4CCC[C@@H](CN12)[C@@H]34", "note": "[Sophocarpine]", "nuclei number (z-score)": "inactive: 0.107"}
{"smiles": "CC(=O)O[C@H]1C[C@@H]2CC[C@@H]3[C@H](CC[C@@]4(C)[C@H]3C[C@H]([N+]3(C)CCCCC3)[C@@H]4OC(C)=O)[C@@]2(C)C[C@@H]1[N+]1(C)CCCCC1", "note": "[Pancuronium dibromide]", "nuclei number (z-score)": "inactive: 0.0928"}
{"smiles": "O=C(NCC1CCOCC1)c1cnc(Nc2ccc(Cl)cc2Cl)nc1C(F)(F)F", "nuclei number (z-score)": "inactive: -0.605"}
{"smiles": "COC(=O)[C@@H](N)CCCNC(=N)N[N+](=O)[O-]", "nuclei number (z-score)": "inactive: 0.594"}
{"smiles": "CN1CCCCC1Cn1cc(C(=O)c2cc([N+](=O)[O-])ccc2I)c2ccccc21", "note": "(centres undefined)", "nuclei number (z-score)": "inactive: 6.52"}
{"smiles": "NCC(O)c1ccc(O)cc1", "note": "(centres undefined) [(+_-)-Octopamine HCl]", "nuclei number (z-score)": "inactive: 0.665"}
{"smiles": "O=c1ccc2cc(O[C@@H]3O[C@H](CO)[C@@H](O)[C@H](O)[C@H]3O)c(O)cc2o1", "note": "[Esculin]", "nuclei number (z-score)": "inactive: 0.0474"}
{"smiles": "O=C(O)C(=O)c1cn(Cc2ccccc2)c2ccc(-c3ccc(OC(F)(F)F)cc3)cc12", "note": "[Tiplaxtinin (PAI-039)]", "nuclei number (z-score)": "inactive: 0.578"}
{"smiles": "c1ccc2c(c1)Nc1ccccc1S2", "note": "[Phenothiazine]", "nuclei number (z-score)": "inactive: -0.381"}
{"smiles": "CC(C)[C@]12O[C@H]1[C@@H]1O[C@]13[C@]1(O[C@H]1C[C@H]1C4=C(CC[C@@]13C)C(=O)OC4)[C@@H]2O", "note": "[Triptolide (PG490)]", "nuclei number (z-score)": "inactive: 0.62"}
{"smiles": "CC(C)(C)c1cc(C=C(C#N)C#N)cc(Br)c1O", "nuclei number (z-score)": "inactive: 1.09"}
{"smiles": "NC[C@H](CC(=O)O)c1ccc(Cl)cc1", "note": "[(R)-baclofen]", "nuclei number (z-score)": "inactive: 4.03"}
{"smiles": "CC(NC(C)(C)C)C(=O)c1cccc(Cl)c1", "note": "(centres undefined) [Amfebutamone HCl]", "nuclei number (z-score)": "inactive: -0.955"}
{"smiles": "CN[C@@H]1[C@@H](O)[C@@H](O[C@@H]2[C@@H](O)[C@H](O[C@H]3O[C@H](CN)CC[C@H]3N)[C@@H](N)C[C@H]2N)OC[C@]1(C)O.CN[C@@H]1[C@@H](O)[C@@H](O[C@@H]2[C@@H](O)[C@H](O[C@H]3O[C@H]([C@@H](C)N)CC[C@H]3N)[C@@H](N)C[C@H]2N)OC[C@]1(C)O.CN[C@@H]1[C@@H](O)[C@@H](O[C@@H]2[C@@H](O)[C@H](O[C@H]3O[C@H]([C@@H](C)NC)CC[C@H]3N)[C@@H](N)C[C@H]2N)OC[C@]1(C)O", "note": "[Gentamicin Sulfate]", "nuclei number (z-score)": "inactive: -0.613"}
{"smiles": "Cn1c(CCCC(=O)O)nc2cc(N(CCCl)CCCl)ccc21", "note": "[Bendamustine HCl]", "nuclei number (z-score)": "inactive: 0.587"}
{"smiles": "O=C1CC[C@@]2(O)[C@H]3Cc4ccc(O)c5c4[C@@]2(CCN3CC2CC2)[C@H]1O5", "note": "[Naltrexone HCl]", "nuclei number (z-score)": "inactive: -0.346"}
{"smiles": "Cc1sc2c(c1C)C(c1ccc(Cl)cc1)=N[C@@H](CC(N)=O)c1nnc(C)n1-2", "nuclei number (z-score)": "active: -3.89"}
{"smiles": "[O-][n+]1ccccc1[S-].[O-][n+]1ccccc1[S-].[Zn+2]", "note": "[Zinc Pyrithione]", "nuclei number (z-score)": "active: -2.4"}
{"smiles": "N[C@@H]1C[C@H]1c1ccccc1", "note": "[Tranylcypromine (2-PCPA) HCl]", "nuclei number (z-score)": "inactive: 0.128"}
{"smiles": "CN1[C@@H]2C[C@@H](OC(=O)[C@H](CO)c3ccccc3)C[C@H]1[C@@H]1O[C@@H]12", "note": "[Scopolamine HBr]", "nuclei number (z-score)": "inactive: -0.996"}
{"smiles": "CN(C)CCc1ccc(O)cc1", "note": "[Hordenine]", "nuclei number (z-score)": "inactive: -1.29"}
{"smiles": "C/C(=C\\c1csc(C)n1)[C@@H]1C[C@@H]2O[C@@H]2CCC[C@H](C)[C@H](O)[C@@H](C)C(=O)C(C)(C)[C@@H](O)CC(=O)O1", "note": "[Epothilone A]", "nuclei number (z-score)": "inactive: -0.886"}
{"smiles": "COC1=C[C@@H]2[C@@H]3Cc4ccc(OC)c(O)c4[C@]2(CCN3C)CC1=O", "note": "[Sinomenine]", "nuclei number (z-score)": "inactive: -0.0393"}
{"smiles": "COc1ccc(N(C(=O)Oc2c(C)cccc2C)c2ccnc(Nc3ccc(N4CCN(C)CC4)cc3)n2)c(OC)c1", "nuclei number (z-score)": "inactive: 0.671"}
{"smiles": "O=[N+]([O-])C(Br)(CO)CO", "note": "[Bronopol]", "nuclei number (z-score)": "inactive: 0.243"}
{"smiles": "CN(C)C(=O)Oc1ccc[n+](C)c1", "note": "[Pyridostigmine Bromide]", "nuclei number (z-score)": "inactive: 0.205"}
{"smiles": "CN1CCN(c2nc3ccccc3nc2Cl)CC1", "nuclei number (z-score)": "inactive: -0.198"}
{"smiles": "CCN1CC2(OC(=O)c3ccccc3NC(C)=O)CCC(OC)C34C1C(CC23)C1(O)CC(OC)C2CC4C1(O)C2OC", "note": "(centres undefined) [Lappaconite HBr]", "nuclei number (z-score)": "inactive: -0.217"}
{"smiles": "C[C@@H]1[C@H](O)[C@@H](C)/C=C/C=C/CC/C=C/C=C/C=C/C=C/[C@H](O[C@H]2O[C@@H](C)[C@H](O)[C@@H](N)[C@H]2O)C[C@@H]2O[C@](O)(C[C@@H](O)[C@H](O)CC[C@@H](O)C[C@@H](O)C[C@@H](O)CC(=O)O[C@H]1C)C[C@H](O)[C@H]2C(=O)O", "note": "[Nystatin (Fungicidin)]", "nuclei number (z-score)": "inactive: 0.499"}
{"smiles": "CC(C)NCC(O)c1ccccc1Cl", "note": "(centres undefined) [Clorprenaline HCl]", "nuclei number (z-score)": "inactive: 0.29"}
{"smiles": "Cc1cc2c(C(C)C)c(O)c(O)c(C=O)c2c(O)c1-c1c(C)cc2c(C(C)C)c(O)c(O)c(C=O)c2c1O", "note": "[Gossypol]", "nuclei number (z-score)": "inactive: -0.688"}
{"smiles": "O=c1[nH]c2ccccc2n1C1CCN(CCCC(c2ccc(F)cc2)c2ccc(F)cc2)CC1", "note": "[Pimozide]", "nuclei number (z-score)": "active: -4.26"}
{"smiles": "O=c1[nH]c2ccc(Cl)cc2c(N[C@@H]2CN3CCC2CC3)c1-c1nc2ccccc2[nH]1", "nuclei number (z-score)": "active: -8.25"}
{"smiles": "CCN(CC)C(=O)c1ccc(C2=CC3(CCNCC3)Oc3cccc(O)c32)cc1", "nuclei number (z-score)": "inactive: 15.4"}
{"smiles": "NCCCNCCSP(=O)(O)O", "note": "[Amifostine]", "nuclei number (z-score)": "inactive: 0.735"}
{"smiles": "C[C@]12CCC(=O)C(O)=C1CC[C@@H]1[C@@H]2CC[C@]2(C)C(=O)CC[C@@H]12", "note": "[Formestane]", "nuclei number (z-score)": "inactive: 0.511"}
